Data from publication PMC12040169 (PLOS Biology, 2025).
Some of the results follow.

The molecules below were run on T1, C. trachomatis L2/434/Bu expressing GFP (CTL2-GFP). Conditions: total inclusion area; 28.5 h, 10 µM; inhibitor.
T1 construct: L2/434/Bu GFP intracellular growth in HeLa cells
Set-up: species or system HeLa; C. trachomatis total inclusion area by high-content imaging, normalised to DMSO
In short: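 Host cell viability was gauged from Hoechst-stained nuclei counts, while chlamydial growth was taken from total inclusion area and inclusion number per well. Cells were fixed and imaged by high-content microscopy once bulk GFP and resorufin fluorescence had been measured.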

Row | Compound | % of control remaining
1 | NC(=O)C1(N2CCCCC2)CCN(C2CC(=O)N(Cc3ccc(N4CCCC4=O)cc3)C2=O)CC1 (stereo not shown) [CBK266598] | 127.812
2 | O=C(NC1CCC1)c1cn2cc(-c3cccs3)n(CC3CC3)c(=O)c2n1 [CBK306863] | 87.2204
3 | COc1ccccc1NC(CC(=O)c1ccccc1)C(=O)O (stereo not shown) [CBK287190] | 112.644
4 | CC(C)N1CCC[C@@H]2CN(C(=O)c3cccc(C(F)(F)F)c3)C[C@@H]21 [CBK285525] | 104.344
5 | CS(=O)(=O)Nc1ccc(C(=O)Nc2ccc(S(=O)(=O)N3CCOCC3)cc2)cc1 [CBK268379] | 84.0474
6 | Cc1ccc(C2(C)CC(C)(C)N(C(=O)CSc3nnc[nH]3)c3ccccc32)cc1 (stereo not shown) [CBK073918] | 56.6205
7 | CC1CN(C(=O)Nc2ccccc2F)CC(C)O1 (stereo not shown) [CBK004990] | 63.23
8 | COc1ccc(Cc2c(C)nc3c(C(=O)NCC4COc5ccccc5O4)cnn3c2C)cc1 (stereo not shown) [CBK162179] | 105.083
9 | O=C1C(NCCO)=C(Nc2cccc(Cl)c2)C(=O)c2ccccc21 [CBK264323] | 35.6606
10 | Clc1ccc(COc2nccnc2OC2CCN(Cc3ccncc3)CC2)cc1Cl [CBK153792] | 65.072
11 | COC(=O)CC[C@H]1CNC(=O)[C@@H]2[C@@H](CCN2C)N1C [CBK289020] | 105.453
12 | O=C(COc1ccccc1[N+](=O)[O-])Nc1ccc(Br)cc1C(=O)O [CBK266008] | 137.03
13 | Cc1nc(C)c(CCC(=O)NC2CCCc3ccccc32)c(=O)[nH]1 (stereo not shown) [CBK295600] | 93.7575
14 | N#C/C(=C\c1ccc(N2CCOCC2)cc1)c1nc2ncc(Br)cc2[nH]1 [CBK266294] | 119.409
15 | Clc1cc(Cl)c2[nH]c3c(c2c1)CCc1nonc1-3 [CBK025929] | 88.2573
16 | CC(C)(C)OC(=O)N1CCN(c2nccnc2Cl)CC1 [CBK013554] | 87.4275
17 | Cc1nn(C)c(N2CCNCC2)c1NC(=O)COc1ccccc1 [CBK050249T] | 44.1655
18 | Cc1cc(CN2CCOCC2)oc1C(=O)O [CBK263239C] | 71.7373
19 | Cc1ccccc1S(=O)(=O)Nc1cc(CN2C[C@H](C)NC[C@H]2C)c2occc2c1 [CBK107210T] | 75.3897
20 | O=C(O)C1CCCCC1C(=O)NCCCN1CCCC1=O (stereo not shown) [CBK286914] | 100.523
21 | CC(=O)NCC1CC(c2ccc(OC(C)=O)c(Cl)n2)=NO1 (stereo not shown) [CBK010396] | 69.4141
22 | O=C(NCc1ccncc1)c1cc(-c2ccc(Cl)cc2)on1 [CBK116559] | 114.565
23 | Cn1cc(C2CCCCCN2S(=O)(=O)c2ccc3[nH]c(=O)[nH]c(=O)c3c2)cn1 (stereo not shown) [CBK286406] | 81.2406
24 | Cc1ccc(NC(=O)N(Cc2ccc(-c3ccccc3)cc2)CC(C)(C)CN)c(C)c1 [CBK002428C] | 49.4358
25 | CCc1nc2ccc(C(=O)NC3CCN(Cc4ccccc4)CC3)cn2c1N(C)CC [CBK145488] | 95.66
26 | CCOc1ccc(CC(=O)N2CCCc3c(cnn3C)C2)cc1 [CBK285325] | 102.891
27 | Cc1ccc(CN(C2CCN(C)CC2)S(=O)(=O)c2ccccc2F)cc1 [CBK160444T] | 47.0174

Row | Compound | % of control remaining
28 | CN1CCN(CCOC(=O)NCc2ccnc3ccccc23)CC1 [CBK200148] | 85.2533
29 | O=c1[nH]c(/C=C\c2cccc(OCCOc3ccccc3)c2)c([N+](=O)[O-])c(=O)[nH]1 [CBK266840] | 75.0511
30 | CC(=O)N1Cc2cc(C)ccc2OC2(CCCN(CC3CC3)C2)C1 (stereo not shown) [CBK285104] | 112.394
31 | O=S(=O)(c1ccc(-c2ccccc2)cc1)n1ccc2cc(N3CCN(Cc4ccccc4)CC3)ccc21 [CBK001388C] | 48.6785
32 | CC(=O)NCCN1CC[C@H]2CN(C(=O)COc3ccccc3)CC[C@H]2CC1=O [CBK288783] | 108.099
33 | CC(C)(C)c1cc(-n2c(-c3cccnc3)nc3ccccc32)cc(C(C)(C)C)c1O [CBK262907] | 79.7266
34 | COc1ccc(CC(=O)N2CCC(c3cc4ncccc4[nH]3)CC2)cc1 [CBK283386] | 86.0334
35 | COc1cc(NC(=S)NCc2ccc(S(N)(=O)=O)cc2)cc(OC)c1 [CBK264935] | 105.879
36 | CN(C)CCN(Cc1ccccc1)Cc1ccc(C(F)(F)F)cc1 [CBK261927] | 85.8943
37 | Cc1nc(NS(=O)(=O)c2ccccc2)sc1NC(=O)Nn1cnnc1 [CBK266699] | 112.425
38 | CC(CN(C)C(=O)c1nc(=O)[nH][nH]1)Oc1ccc(Cl)c(Cl)c1 (stereo not shown) [CBK306471] | 55.4697
39 | COc1ccc(NC2=N[C@H]3[C@@H](O)[C@H](O)C[C@H](C(=O)N(C)Cc4ccccc4)[C@H]3S2)cc1 [CBK288950] | 94.4165
40 | CC(=O)Nc1ccc(NCc2nc(CC(C)C)no2)c(C(F)(F)F)c1 [CBK305799] | 64.1117
41 | O=C(C1CCN(S(=O)(=O)c2ccccc2)CC1)N1CCN(Cc2ccc3c(c2)OCO3)CC1 [CBK265713] | 142.416
42 | O=C(CN1CCn2ccnc2C1)N(Cc1ccccc1F)C1CC1 [CBK303995] | 74.1462
43 | COc1cccc(-n2c(C)nnc2C2(OC(C)=O)CCN(CCc3ccccc3)CC2)c1 [CBK016371] | 100.646
44 | Cc1ccc(C(=O)N/C(=C\c2cccc([N+](=O)[O-])c2)c2n[nH]c(=S)[nH]2)cc1 [CBK263114] | 102.306
45 | CCOC(=O)CCC(=O)n1c2ccccc2c2ccccc21 [CBK001170] | 98.3018
46 | O=C(CCN1CCCC12CCc1[nH]c3ccccc3c1C2)c1ccc(F)cc1 (stereo not shown) [CBK084593] | 64.1569
47 | CSc1ccc(-c2cnc(N)c3ncccc23)cc1 [CBK067584] | 70.8479
48 | OCCN1CC2(CCN(Cc3ccc4ccccc4c3)CC2)c2ccccc21 [CBK131529] | 101.026
49 | O=C(NC1CC1)C1(Cc2ccccc2-c2ccncc2)CCOCC1 [CBK284785] | 89.8759
50 | C[C@@H](Nc1cncc(-c2cccc(N)c2)n1)c1ccccc1 [CBK065273] | 108.613
51 | C[C@]12CN(CCc3ccccc3)C[C@H]1NC(=O)c1ccccc1C2=O [CBK284704] | 108.719
52 | O=C1CC(N2CCN(Cc3ccc4c(c3)OCO4)CC2)C(=O)N1c1ccc(Cl)cc1 (stereo not shown) [CBK074402] | 86.8634
53 | Nc1ncccc1OCCOc1cccnc1N [CBK022067] | 69.8701
54 | COc1ccc2oc(C(=O)N(C)CC(C)OC)c(C)c2c1 (stereo not shown) [CBK282037] | 94.4945

Row | Compound | % of control remaining
55 | O=C(CSCc1c(F)cccc1Cl)Nc1ccc(S(=O)(=O)N2CCCCCC2)cc1 [CBK268497] | 89.4065
56 | CCCCN(C)c1nccnc1-c1cccc(O)c1 [CBK037652] | 93.7539
57 | CC1Cc2cc(C(=O)N3CCCCC3CCN3CCCC3)ccc2O1 (stereo not shown) [CBK282094] | 85.5856
58 | Clc1ccc(CN2CCN(CCc3ccccc3)CC2)cc1Cl [CBK126420] | 103.801
59 | O=C(NCCNC(=O)c1ccccn1)c1ccccn1 [CBK265654] | 97.7746
60 | Cc1cc(Cl)ccc1NC(=O)CCC(=O)N/N=C/c1ccc(O)cc1 [CBK261974] | 97.8304
61 | CC(C)C1SC(=NC2CC3CCC2C3)N(C)C1=O (stereo not shown) [CBK076727] | 89.158
62 | CN(Cc1ccccc1)C(=O)[C@@H]1Cc2[nH]cnc2CN1Cc1cc2ccccc2o1 [CBK288978] | 88.5192
63 | CCc1nc2n(n1)CC(NCc1nc(C)ccc1O)CC2 (stereo not shown) [CBK306107] | 37.0779
64 | COc1cc2c(cc1CN(Cc1ccc3c(c1)OCO3)CC(C)O)CCC2 (stereo not shown) [CBK286473] | 80.1388
65 | O=C(O)CCc1ccc(-c2cc(N3CCN(CC(=O)N4CCCC4)CC3)ncn2)cc1 [CBK091079] | 106.049
66 | Cc1cccc(OCc2nnc(SCc3nc4ccccc4c(=O)[nH]3)o2)c1 [CBK269030] | 88.8929
67 | O=C(NC1CCCC1)c1ccc2nccnc2c1 [CBK200217] | 100.623
68 | C=CCn1c2cc(C)sc2c2cnn(CC(=O)NC3CC3)c(=O)c21 [CBK284149] | 92.5871
69 | COc1cc(F)ccc1-c1ccc(N)c2ccccc12 [CBK084319] | 93.8706
70 | Cn1ccnc1C1(O)CCN(C(=O)c2cccc(F)c2)CC1 [CBK283543] | 64.9556
71 | CC1(CNC(=O)c2cc(C3CC3)nc3ccccc23)COC1 [CBK281752] | 128.209
72 | Cc1ccc(CCC(=O)C(C#N)c2nc3ccccc3s2)o1 (stereo not shown) [CBK268944] | 79.9539
73 | O=C(O)C1CCCCN1S(=O)(=O)c1ccc(Cl)cc1 (stereo not shown) [CBK077418] | 77.4018
74 | O=[N+]([O-])c1cc(S(=O)(=O)Nc2ccccc2)ccc1N1CCN2CCCC2C1 (stereo not shown) [CBK001248] | 92.6174
75 | Cc1cc(C)n(C(C)CC(=O)NCC(C)N2CCC(C)CC2)n1 (stereo not shown) [CBK282104] | 93.3628
76 | CCn1nc(C(C)C)cc1C(=O)N1CCN(C)CC1c1ccccc1 (stereo not shown) [CBK282025] | 91.618
77 | O=C(/C=C/c1ccco1)NC(=S)Nc1ccccc1[N+](=O)[O-] [CBK264375] | 96.3066
78 | Cc1[nH]c(=O)c(C(=O)Nc2ccc(-n3ccc(C(N)=O)n3)cc2)cc1-c1ccccc1 [CBK291194] | 84.6501
79 | COc1ccc(NC(=O)c2cnccn2)c(OC)c1 [CBK262240] | 65.6461
